Laboratory results from the supplement of paper PMC12355420.
Counter-ions that a name gives are not always drawn. The list shows a part of the results. Most values come without repeats; read them as rough.

system: HeLa VPS33A reporter cells; assay: relative cell viability (CellMask signal) vs DMSO (fraction of DMSO); HeLa model of a glycosaminoglycan (GAG) storage disease; KI is knock-in and KO knock-out; SDC1 is syndecan 1; higher = less cytotoxic; conditions: 50 µM; 24 h
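Note: primary screen of an FDA-approved drug library in HeLa reporter cells in 96-well format, CellMask signal normalized to DMSO-treated wells set as 1, under 0.5 deemed highly cytotoxic.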

Compound	relative cell viability
CC[N+](C)(C)c1cccc(O)c1 [Edrophonium (chloride)]	0.998
OC[C@H]1O[C@@](CO)(O[C@H]2O[C@H](CO)[C@@H](O)[C@H](O)[C@H]2O)[C@@H](O)[C@@H]1O [sucrose]	1.06
C=C[C@H]1CN2CC[C@H]1C[C@H]2[C@H](O)c1ccnc2ccc(OC)cc12 [Quinine]	1.11
CCn1cc(C(=O)O)c(=O)c2ccc(C)nc21 [Nalidixic acid]	0.953
CO/N=C(\C(=O)N[C@@H]1C(=O)N2C(C(=O)O)=C(CSC(=O)c3ccco3)CS[C@H]12)c1csc(N)n1 [Ceftiofur HCl]	1.02
Cc1onc(-c2ccccc2)c1C(=O)N[C@@H]1C(=O)N2[C@@H]1SC(C)(C)[C@@H]2C(=O)O [Oxacillin sodium monohydrate]	0.988
Oc1cc(O)c(Cl)cn1 [Gimeracil]	1.26
CC(C)NCC(O)COc1cccc2ccccc12 (centres undefined) [Propranolol HCl]	1.11
C[C@H](N)C(=O)O [L-Alanine]	1.03
COc1cc(C2Oc3cc([C@H]4Oc5cc(O)cc(O)c5C(=O)[C@@H]4O)ccc3OC2CO)ccc1O (some centres undefined) [Silymarin]	1.02
N[C@@H](Cc1cc(I)c(Oc2ccc(O)c(I)c2)c(I)c1)C(=O)O [Liothyronine Sodium]	0.872
N[C@@H]1CN(c2c(F)cc3c(=O)c(C(=O)O)cn([C@@H]4C[C@@H]4F)c3c2Cl)CC12CC2 [Sitafloxacin Hydrate]	1.02
C=C[C@]1(C)C[C@@H](OC(=O)CS[C@@H]2C[C@H]3CC[C@@H](C2)N3C)[C@]2(C)[C@H](C)CC[C@]3(CCC(=O)[C@H]32)[C@@H](C)[C@@H]1O [Retapamulin]	0.937
CCCCCCCN(CC)CCCC(O)c1ccc(NS(C)(=O)=O)cc1 (centres undefined) [Ibutilide Fumarate]	1.02
CC(C)(C)NCC(O)c1ccc(O)c(CO)c1 (centres undefined) [Salbutamol Sulfate]	1.31
CC(C)c1nc(N(C)S(C)(=O)=O)nc(-c2ccc(F)cc2)c1/C=C/[C@@H](O)C[C@@H](O)CC(=O)O [Rosuvastatin]	1.42
CC(=O)[C@H]1CC[C@H]2[C@@H]3C=CC4=CC(=O)CC[C@@]4(C)[C@@H]3CC[C@]12C [Dydrogesterone]	0.887
CC(=O)Oc1cc(C(F)(F)F)ccc1C(=O)O [Triflusal]	0.969
c1cc(CN2CCCNCCNCCCNCC2)ccc1CN1CCCNCCNCCCNCC1 [Plerixafor (AMD3100)]	0.979
Nc1ccn([C@@H]2CS[C@H](CO)O2)c(=O)n1 [Lamivudine]	1.11
C[C@@H]1CC(=O)NN=C1c1ccc(NN=C(C#N)C#N)cc1 [Levosimendan]	0.836
C(=C\c1ccccc1)/CN1CCN(C(c2ccccc2)c2ccccc2)CC1 [Cinnarizine]	1.06
C[C@@](Cc1ccc(O)c(O)c1)(NN)C(=O)O [Carbidopa]	1.05
CC[C@H](Nc1ncnc2[nH]cnc12)c1nc2cccc(F)c2c(=O)n1-c1ccccc1 [CAL-101 (Idelalisib, GS-1101)]	1.09
Cn1ccnc1S [Methimazole]	1.15
C[C@]12CC[C@@H]3c4ccc(O)cc4CC[C@H]3[C@@H]1CC[C@@H]2O [Estradiol]	0.851
O=c1n(CCCN2CCN(c3cccc(Cl)c3)CC2)nc2ccccn12 [Trazodone HCl]	1.06
Cc1cccc(-c2nn3c(c2-c2ccnc4ccc(C(N)=O)cc24)CCC3)n1	1.44
C#Cc1cccc(Nc2ncnc3cc(OCCOC)c(OCCOC)cc23)c1 [Erlotinib Hydrochloride]	1.32
